# From PubChem BioAssay (Tox21)
# Several values for one entry are separate records, joined by “and”; a condition that tells them apart may be missing. Equal values may be shown once. The inconclusive results got no clear call from the source; some entries with a clear call stand among them for comparison. Potencies beside an inconclusive call are fits to weak or partial responses and may not hold up. Activity calls are given as the source filed them. Unless noted, the call rests on the fitted dose curve; in most records, active means well fitted curve in the direction sought with a large enough effect in the repeat runs; inconclusive means weak or mixed curves; inactive means no such curve, though single readings can be large; an effect the other way counts as inactive or inconclusive.
# Key:
# [1] = target: Peroxisome proliferator-activated receptor gamma (Homo sapiens) (UniProt P37231); assay: qHTS assay to identify small molecule agonists of the peroxisome proliferator-activated receptor gamma (PPARg) signaling pathway (AID 743094; active means well fitted activation curve with a large enough effect in the signal ratio in the repeat runs, not every such curve was filed as active; inconclusive means weak or mixed curves, or effect the other way; inactive means no such curve, though single readings can be large or run the other way; the % refers to the signal ratio; on activation: on the % scale 0 is the no-effect control and ±100 the full control effect); conditions: HEK293H PPARg-UAS-bla, beta-lactamase FRET ratio, 17 h; activation: at 57 µM (top of the series) unless noted
# Chain of UniProt P37231 (P37231 whole entry, looked up): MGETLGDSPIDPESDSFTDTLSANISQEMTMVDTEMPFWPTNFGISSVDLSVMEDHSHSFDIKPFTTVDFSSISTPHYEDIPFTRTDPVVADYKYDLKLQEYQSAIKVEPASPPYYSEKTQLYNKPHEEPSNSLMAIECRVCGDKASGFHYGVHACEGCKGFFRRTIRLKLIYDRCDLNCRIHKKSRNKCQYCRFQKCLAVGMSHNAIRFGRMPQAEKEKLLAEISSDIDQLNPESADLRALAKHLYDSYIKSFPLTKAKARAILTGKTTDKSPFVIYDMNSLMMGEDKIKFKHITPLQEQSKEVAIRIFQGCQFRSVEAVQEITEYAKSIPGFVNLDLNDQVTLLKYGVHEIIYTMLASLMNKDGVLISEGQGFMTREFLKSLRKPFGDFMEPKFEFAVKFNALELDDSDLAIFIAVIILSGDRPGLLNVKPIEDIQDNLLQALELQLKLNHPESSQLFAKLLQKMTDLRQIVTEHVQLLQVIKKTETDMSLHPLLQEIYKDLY
# Summary of the method: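 Quantitative HTS agonist mode: stable HEK293H line with UAS-beta-lactamase reporter under PPARg control, 17 h compound exposure at 37C, fluorescence after 1 h FRET substrate loading at room temperature.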
# [2] = qHTS assay for small molecule agonists of the antioxidant response element (ARE) signaling pathway (AID 743202; active means well fitted activation curve with a large enough effect in the signal ratio in the repeat runs, not every such curve was filed as active; inconclusive means weak or mixed curves, or effect the other way; inactive means no such curve, though single readings can be large or run the other way; the % refers to the signal ratio; on activation: on the % scale 0 is the no-effect control and ±100 the full control effect); conditions: HepG2 ARE-bla reporter, beta-lactamase FRET, 16 h; activation: at 73.3 µM (top of the series) unless noted
# Summary of the method: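 Agonist mode reporter screen: HepG2 cells with ARE-controlled beta-lactamase are incubated with test compounds for 16 h at 37 C, and beta-lactamase activity is measured as fluorescence of cleaved B/G FRET substrate.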
# [3] = qHTS assay to identify small molecule agonists of the peroxisome proliferator-activated receptor delta (PPARd) signaling pathway - cell viability counter screen (AID 743211); conditions: PPARd-bla HEK293H viability, CellTiter-Glo luminescence, 17 h; activity change, negative = cytotoxicity: at 62.6 µM (top of the series); further: nearly all actives have a fitted effect of over 55% in size
# Summary of the method: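 Tox21 library compounds, delivered in DMSO, were incubated 17 h with PPARd-bla HEK293H cells; cytotoxicity was taken from CellTiter-Glo luminescence read 30 min after reagent addition.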
# [4] = target: Peroxisome proliferator-activated receptor gamma (Homo sapiens) (UniProt P37231); assay: qHTS assay to identify small molecule antagonists of the peroxisome proliferator-activated receptor gamma (PPARg) signaling pathway (AID 743191; calls by dose curve; further: nearly all actives have a fitted effect of over 30% in size; on ratio activity, negative = inhibition: on the % scale 0 is the no-effect control and ±100 the full control effect); conditions: HEK293H PPARg-UAS-bla, beta-lactamase ratio, antagonist, 17 h; ratio activity, negative = inhibition: at 62.6 µM (top of the series) unless noted
# Summary of the method: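 GeneBLAzer PPARg UAS-bla HEK293H cells, 5 h post-plating, exposed to compounds 17 h at 37C. LiveBLAzer B/G FRET substrate added for 1 h at room temperature; beta-lactamase reporter read by fluorescence intensity.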
# [5] = qHTS assay to identify small molecule antagonists of the peroxisome proliferator-activated receptor gamma (PPARg) signaling pathway - cell viability counter screen (AID 743194); conditions: PPARg-bla HEK293H viability, CellTiter-Glo luminescence, 17 h, co-treated with 50 nM rosiglitazone; activity change, negative = cytotoxicity: at 62.6 µM (top of the series) unless noted; further: nearly all actives have a fitted effect of over 55% in size
# Summary of the method: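 Cytotoxicity counter screen in PPARg-bla HEK293H cells, same wells as reporter assay. Compounds plus 50 nM rosiglitazone (final) for 17 h at 37 C, then viability read by CellTiter-Glo luminescence.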
# [6] = qHTS assay for small molecule agonists of the antioxidant response element (ARE) signaling pathway - cell viability counter screen (AID 743203; calls by dose curve; further: nearly all actives have a fitted effect of over 55% in size); conditions: ARE-bla HepG2 viability, CellTiter-Glo luminescence, 16 h; viability change, negative = cytotoxic: at 73.3 µM (top of the series)
# Summary of the method: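 Seeded at 2,000 cells/well, ARE-bla HepG2 cells were incubated 5 hrs before compound addition. After 16 hrs of treatment at 37C with 5% CO2, CellTiter-Glo reagent was added and luminescence read 30 min later.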
# [7] = qHTS assay for small molecule activators of the heat shock response signaling pathway (AID 743210; active means well fitted activation curve with a large enough effect in the signal ratio in the repeat runs, with a control signal flat, not every such curve was filed as active; inconclusive means weak or mixed curves; the % refers to the signal ratio;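 on activation: HeLa cells with beta-lactamase reporter driven by heat shock elements; on the % scale 0 is the no-effect control and ±100 the full control effect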); conditions: HeLa HSE-bla reporter, beta-lactamase ratio, 5 h; activation: at 62.6 µM (top of the series) unless noted
# Summary of the method: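 Quantitative high-throughput format using an engineered HeLa line in which heat shock response elements drive beta-lactamase; after 5 h with compound, cells received a B/G FRET substrate and fluorescence was read.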
# [8] = qHTS assay for small molecule activators of the heat shock response signaling pathway - cell viability counter screen (AID 743209); conditions: HSE-bla HeLa viability, CellTiter-Glo luminescence, 5 h; activity change, negative = cytotoxicity: at 62.6 µM (top of the series) unless noted; further: nearly all actives have a fitted effect of over 50% in size
# Summary of the method: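 First, HSE-bla HeLa cells were seeded at 1500 cells/well and kept overnight at 37 C. Next, compounds were pinned in and incubated 5 h. After the FRET substrate step, CellTiter-Glo was added and luminescence read 30 min later.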
# Potency means the concentration at half of the fitted maximal effect; tags describe the fitted curve by direction and shape or compound fluorescence and quenching.
structure (smiles),measurement,setting,value
CC1(C)CC(N=C=O)CC(C)(CN=C=O)C1 (stereo not drawn),Potency,[1],"inconclusive: 21.9 µM [falling, partial curve, poor fit]"
same,activation,[2],inconclusive: -7.43% [at 94.8 µM]
same,Potency,[3],"inconclusive: 54.9 µM [cytotoxic, partial curve, poor fit]"
OCC(F)(F)F,Potency,[4],inactive
O=[N+]([O-])c1ccc(F)c(Cl)c1,Potency,[4],inactive
O=c1[nH]c(=O)n([C@H]2C[C@H](O)[C@@H](CO)O2)cc1F,activation,[1],inconclusive: -3.05%
same,Potency,[5],"inconclusive: 2.37 µM [cytotoxic, partial curve, poor fit]"
same,Potency,[2],"inconclusive: 0.335 µM [rising, full curve]"
same,Potency,[6],"inconclusive: 2.66 µM [cytotoxic, partial curve, poor fit]"
same,Potency,[7],inactive
same,Potency,[3],"inconclusive: 0.119 µM [cytotoxic, single point]"
CC(C)COCC(CN(Cc1ccccc1)c1ccccc1)N1CCCC1 (stereo not drawn),Potency,[1],inactive
same,Potency,[5],active: 26.6 µM
same,Potency,[2],"inconclusive: 23.7 µM [rising, partial curve, poor fit]"
same,Potency,[8],"inconclusive: 15 µM [cytotoxic, partial curve, poor fit]"
OCCCCCO,Potency,[1],inactive
same,Potency,[5],"inconclusive: 0.0511 µM [cytotoxic, full curve, poor fit]"
same,Potency,[3],"inconclusive: 40.6 µM [rising, partial curve, poor fit]"
CCO[Si](OCC)(OCC)OCC,Potency,[1],inactive
same,Potency,[2],inactive
same,Potency,[3],inactive
O=C(O)CN(CCN(CC(=O)O)CC(=O)O)CCN(CC(=O)O)CC(=O)O,activation,[1],inconclusive: -11.3%
same,Potency,[2],"inconclusive: 4.11 µM [falling, partial curve]"
CC1=C(/C=C/C(C)=C/C=C/C(C)=C/CO)C(C)(C)CCC1,Potency,[1],"inconclusive: 57.9 µM [fluorescent, partial curve]"
same,Potency,[2],active: 61.9 µM and active: 57.4 µM
same,Potency,[7],inconclusive: 55.6 µM [single point] and inconclusive: 60.2 µM [activator]
CCCCOC(=O)CC,activation,[1],inconclusive: -3.73%
same,Potency,[2],inactive
CCCN(CCC)CCc1cccc2c1CC(=O)N2,Potency,[1],inactive
same,Potency,[2],inactive
CCCc1ccccc1,activation,[1],inconclusive: 3.52%
same,activation,[2],inconclusive: -11.5%
CN1[C@@H]2CC(OC(=O)[C@H](CO)c3ccccc3)C[C@H]1[C@@H]1O[C@@H]12 (stereo partly drawn),Potency,[1],inactive
same,activation,[2],inconclusive: 17.3%
CC(=O)CCC1=C(C)CCCC1(C)C,Potency,[1],inactive
same,Potency,[8],"inconclusive: 54.9 µM [cytotoxic, single point]"
BrCCOc1ccccc1,Potency,[1],inactive
same,Potency,[5],inactive
same,Potency,[7],"inconclusive: 61.8 µM [activator, partial curve, poor fit]"
Oc1ccc(Cc2ccccc2O)cc1,Potency,[4],"inconclusive: 11 µM [inhibitor, full curve]"
CC(C)(N=C=O)c1cccc(C(C)(C)N=C=O)c1,activation,[1],inconclusive: -7.6%
same,Potency,[5],"inconclusive: 1.94 µM [rising, partial curve, poor fit]"
same,activation,[2],inconclusive: 9.1%
Cc1ccc(C(C)(C)C)cc1,Potency,[1],inactive
same,Potency,[7],inactive
CC(C)COC(=O)CC(C(=O)OCC(C)C)S(=O)(=O)O (stereo not drawn),Potency,[1],inactive
same,activation,[2],inconclusive: 6.31%
same,Potency,[6],"inconclusive: 6.86 µM [cytotoxic, partial curve, poor fit]"
same,Potency,[3],inactive
Cc1nccn1-c1ccc(Sc2cccc(C3(C(N)=O)CCOCC3)c2)cc1,activation,[1],inconclusive: -12.4%
same,Potency,[5],"inconclusive: 12.3 µM [cytotoxic, partial curve, poor fit]"
same,Potency,[2],"inconclusive: 0.545 µM [rising, full curve]"
Cc1onc(-c2ccccc2Cl)c1C(=O)N[C@@H]1C(=O)N2[C@@H]1SC(C)(C)[C@@H]2C(=O)O,Potency,[1],inactive
same,activation,[2],inconclusive: 19.6%
Cc1cc(C(C#N)c2ccc(Cl)cc2)c(Cl)cc1NC(=O)c1cc(I)cc(I)c1O (stereo not drawn),activation,[1],inconclusive: 4.05%
same,Potency,[5],active: 3.76 µM
same,Potency,[2],"inconclusive: 26.6 µM [rising, partial curve]"
same,Potency,[6],active: 33.5 µM
same,Potency,[8],"inconclusive: 2.11 µM [cytotoxic, full curve]"
same,Potency,[3],active: 29.8 µM
NCCOCCOCCN,activation,[1],inconclusive: 5.21%
same,Potency,[2],active: 48.6 µM
same,Potency,[6],inactive
same,activation,[7],inconclusive: -1.2%
CCCCCCCCCCCCCCCO,Potency,[1],inactive
same,Potency,[5],inactive
C[C@H](CCC(=O)O)[C@H]1CC[C@H]2[C@@H]3[C@H](O)C[C@@H]4C[C@H](O)CC[C@]4(C)[C@H]3C[C@H](O)[C@]12C,Potency,[4],inactive
COC(=O)C(C)=O,Potency,[1],inactive
same,Potency,[2],inactive
CCC(C)COC(=O)CC(C)C (stereo not drawn),activation,[1],inconclusive: 5.88%
same,Potency,[5],"inconclusive: 5.49 µM [rising, full curve, poor fit]"
same,Potency,[2],"inconclusive: 77 µM [rising, partial curve, poor fit]"
same,Potency,[3],"inconclusive: 49 µM [cytotoxic, partial curve, poor fit]"
